In the supplement of paper PMC12217912:
The list shows a part of the results. Sequences were assembled here from the parent chain. Inactive controls read about 0.05.

B1: TEV protease; numbered along this chain (parent)
chain: MGESLFKGPRDYNPISSSICHLTNESDGHTTSLYGIGFGPFIITNKHLFRRNNGTLVVQSLHGVFKVKDTTTLQQHLVDGRDMIIIRMPKDFPPFPQKLKFREPQREERICLVTTNFQTKSMSSMVSDTSCTFPSGDGIFWKHWIQTKDGQCGSPLVSTRDGFIVGIHSASNFTNTNNYFTSVPKNFMELLTNQEAQQWVSGWRLNADSVLWGGHKVFMVKPEEPFQPVKEATQL

Variants of: B1
Test: raw area under fraction-flipped curve 0-4 h after induction (AUC4h, not background-subtracted), DNA-recorder readout of cleavage of the substrate (dimensionless); higher = more cleavage of the substrate by the protease variant
Details: temperature: 34 °C; time window: 0-4 h after rhamnose induction
Procedure: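 In vivo DNA recorder in E. coli TOP10(DE3) ΔrhaA at 34 °C. Each TEVp single-site mutant (parent TEVp 0) is paired with a single-site variant of the 7-mer TEVs (canonical ENLYFQ|S). The substrate sits between flexible linkers in a Bxb1-sfGFP-TEVs-SsrA fusion, so cleavage stabilises Bxb1 and speeds flipping of a recombination array, read by NGS. The value is the raw area under the fraction-flipped curve over 0-4 h after rhamnose induction (AUC4h), with ≥20 reads per time point. It is not background-subtracted; inactive controls average about 0.047.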
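Further: Bxb1 expression induced with 0.2% (w/v) L-rhamnose at OD600 near 0.5, cultures sampled hourly, flipped fraction per protease–substrate barcode pair counted by paired-end Illumina sequencing.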

Variant | area with substrate ENLYDQS | area with substrate ENLYEQS | area with substrate ENLYGQS | area with substrate ENLYHQS | area with substrate ENLYIQS | area with substrate ENLYKQS | area with substrate ENLYMQS | area with substrate ENLYNQS | area with substrate ENLYRQS | area with substrate ENLYVQS | area with substrate ENLYWQS | area with substrate ENLYYQS | area with substrate ENLYQQS | area with substrate ENLYTQS | area with substrate ENLYPQS | area with substrate ENLYSQS | area with substrate ENLYLQS
N53Q | 0.0547 | 0.0683 | 0.0668 | 0.0623 | 0.118 | 0.0128 | 0.0814 | 0.0638 | 0.0635 | 0.0792 | 0.0665 | 0.0613 | – | – | – | – | –
G54W | 0.057 | 0.0498 | – | 0.0537 | – | 0.0608 | – | 0.0573 | 0.0582 | 0.0681 | 0.0537 | 0.0467 | 0.0613 | 0.0521 | – | – | –
V58R | 0.0529 | 0.043 | 0.0464 | 0.0468 | 0.0624 | 0.0633 | 0.052 | 0.0542 | 0.0585 | 0.0471 | – | 0.048 | – | – | 0.0459 | – | –
Q59K | 0.0477 | 0.0698 | – | – | 0.119 | – | – | 0.0662 | 0.0735 | 0.164 | – | – | 0.0532 | – | 0.0695 | 0.0768 | –
G63T | 0.0526 | 0.0646 | 0.0495 | 0.0762 | – | 0.0584 | 0.0809 | 0.058 | 0.0598 | 0.127 | 0.0725 | – | 0.0569 | – | 0.0944 | – | 0.0913
V67A | 0.0545 | 0.0688 | – | 0.056 | 0.107 | 0.0562 | 0.0904 | 0.0559 | 0.0634 | 0.122 | 0.0784 | – | 0.067 | – | 0.0911 | 0.0761 | –
K68Y | 0.0539 | 0.0628 | 0.0597 | 0.0649 | 0.111 | 0.0595 | – | 0.0982 | 0.06 | – | 0.0753 | – | 0.0771 | 0.0802 | 0.0614 | 0.0653 | 0.0748
T70R | 0.07 | 0.0538 | 0.0604 | 0.0548 | 0.0865 | 0.0407 | – | 0.0524 | – | 0.121 | 0.064 | 0.0496 | 0.0873 | – | 0.0641 | – | –
Q75A | 0.056 | 0.0604 | – | 0.066 | 0.0861 | – | 0.0641 | 0.0643 | – | – | 0.0682 | 0.0672 | 0.0673 | – | – | – | –
Q75W | 0.0497 | 0.0556 | 0.0642 | 0.0611 | – | 0.057 | 0.0477 | 0.0595 | 0.0612 | 0.0591 | 0.0568 | 0.042 | – | – | 0.0496 | 0.0554 | 0.0819
D79M | 0.0619 | 0.0424 | 0.0663 | 0.0662 | 0.13 | 0.0412 | 0.0795 | 0.0611 | 0.0628 | 0.0997 | – | 0.0575 | – | 0.089 | 0.0602 | 0.0608 | –
D79S | 0.0571 | 0.0675 | 0.0722 | 0.0817 | 0.113 | 0.0706 | 0.0838 | 0.0676 | 0.0592 | 0.0799 | 0.0521 | – | 0.0595 | 0.082 | 0.0636 | 0.0856 | 0.0741
D79T | 0.0544 | 0.0522 | – | – | – | 0.0619 | 0.0835 | 0.057 | – | 0.0985 | – | – | 0.0711 | – | – | 0.0844 | –
I84A | 0.0505 | 0.0577 | 0.064 | 0.0542 | – | 0.0291 | 0.0724 | 0.068 | – | – | – | – | 0.0664 | 0.0671 | – | – | –
K90H | 0.0397 | 0.069 | 0.0594 | 0.0713 | 0.112 | 0.0737 | 0.0502 | 0.0641 | 0.0489 | 0.154 | 0.0661 | 0.0777 | 0.0648 | 0.0834 | 0.056 | 0.0593 | 0.0867
P94A | 0.0588 | 0.0632 | – | 0.076 | – | – | – | – | – | 0.116 | 0.0961 | – | – | – | – | – | –
Q97A | 0.0744 | – | 0.0616 | 0.0714 | 0.122 | 0.0496 | 0.0728 | 0.06 | – | – | – | – | 0.0671 | – | – | 0.0705 | –
Q97H | 0.0684 | 0.0685 | 0.0657 | 0.0677 | – | – | 0.0637 | 0.069 | 0.0536 | – | 0.0693 | – | – | 0.0847 | 0.0762 | – | –
L99Q | 0.0568 | 0.0593 | 0.0485 | 0.0851 | – | – | 0.0543 | – | – | 0.11 | – | – | – | – | – | 0.0652 | –
Q105L | 0.0545 | 0.102 | – | 0.0556 | 0.132 | 0.0399 | 0.0951 | 0.0834 | – | 0.11 | – | – | 0.049 | 0.098 | 0.0719 | 0.0643 | –
R106S | 0.0598 | 0.0693 | 0.0619 | 0.0654 | 0.12 | 0.071 | 0.0849 | 0.0665 | 0.0725 | 0.128 | 0.074 | – | – | – | 0.082 | 0.0703 | 0.0991
R109L | 0.0636 | – | 0.0746 | 0.0739 | 0.0782 | 0.0578 | – | – | 0.0598 | 0.151 | 0.0888 | – | 0.0697 | 0.083 | 0.0803 | 0.0661 | 0.0809
I110N | 0.0587 | 0.0591 | 0.0564 | 0.0603 | 0.0468 | 0.0548 | 0.0559 | 0.0557 | 0.0568 | 0.0538 | 0.0514 | 0.0588 | – | – | 0.0532 | 0.0525 | 0.0477
V113M | 0.0624 | 0.062 | – | 0.0742 | 0.0849 | – | 0.0835 | 0.0723 | – | 0.137 | 0.0747 | 0.0449 | 0.0639 | – | – | 0.0752 | –
N116L | 0.0517 | 0.0604 | 0.0672 | 0.0616 | 0.118 | – | 0.0816 | 0.0704 | – | 0.113 | 0.0703 | 0.054 | – | – | 0.115 | 0.0669 | –
S130E | 0.0448 | 0.0826 | – | – | – | 0.0572 | – | 0.0701 | 0.0575 | 0.117 | 0.0821 | 0.0608 | – | – | 0.0681 | 0.0823 | 0.0763
C131M | 0.0618 | 0.0697 | – | 0.0444 | – | 0.0713 | 0.0737 | 0.065 | 0.043 | – | 0.0697 | – | – | 0.0787 | – | – | –
F133P | 0.0652 | 0.061 | 0.0632 | 0.0497 | 0.0825 | 0.0242 | 0.0593 | 0.0658 | 0.0531 | 0.0724 | 0.068 | 0.0462 | 0.0685 | – | 0.0473 | – | 0.0649
F140L | 0.0554 | 0.0621 | 0.0548 | 0.0559 | 0.0849 | 0.063 | 0.0821 | – | 0.0625 | 0.0962 | 0.065 | – | – | 0.0793 | – | – | –
F140V | 0.0596 | 0.0612 | 0.0549 | 0.0618 | 0.0896 | 0.0608 | 0.0625 | 0.0577 | 0.0688 | 0.063 | 0.0608 | 0.0569 | 0.0626 | 0.0696 | 0.0491 | – | 0.0626
